Data: ChEMBL document CHEMBL4888484, “Replenishing the malaria drug discovery pipeline: Screening and hit evaluation of the MMV Hit Generation Library 1 (HGL1) against asexual blood stage Plasmodium falciparum ,using a nano luciferase reporter read-out” (2022)
Among all 150,000 compounds or so, about 540 (0.36%) showed an effect of 50% or more. The list shows a part of the results.

System: Plasmodium falciparum
Experiment: Primary screen in NF54 nanoGlo assay, in single point, at 2uM, 72h; a lower Z score goes with more inhibition
Type: functional, Erythrocyte
Conditions: timepoint 72 hour

Q: With `COc1cc(C)cc(OC)c1-c1ccc(-n2cnnc2)nc1` as the molecule, how does the “% Inhibition” value read?
A: The value was 3%.

Q: What about the Z score of the same molecule?
A: Its Z score is -0.5.

Q: Which “% Inhibition” value does the source give for `CCn1ccc(NC(=O)N[C@@H]2CCC[C@@H]2Oc2cnn(C)c2)n1` here?
A: Its value is -5%.

Q: And the Z score?
A: The Z score was 0.57.

Q: Which “% Inhibition” value does the source give for `CCc1noc(CC)c1CNC(=O)N1CCC[C@H]1C(F)F` here?
A: The value was 5%.

Q: And the Z score?
A: Its Z score is -0.74.

Q: What does the source list for `O=C(CCc1ccsc1)NCCc1ccccc1`?
A: % Inhibition: -4%; Z score: 0.77

Q: For `CC(C)(C)c1ccc2c(c1)N(S(=O)(=O)c1ccccc1)C[C@@H](C(=O)NCc1ccco1)O2`, which “% Inhibition” value is on record?
A: The value was -16%.

Q: And the Z score?
A: Its Z score is 2.88.

Q: How did the “% Inhibition” value turn out when `CCc1nn2c(c1-c1ccc(OC)c(S(=O)(=O)Nc3ccc(C)cc3C)c1)NC(=O)CCC2=O` was run?
A: The value was 5%.

Q: What about the Z score of the same molecule?
A: Its Z score is -0.62.

Q: Which results are given for `c1sc(CC2CC2)nc1C1CCOCC1`?
A: % Inhibition: -2%; Z score: 0.25

Q: With `COc1cc(NC(=O)NC2CCCC(OC(=O)Nc3ccccc3)C2)cc(OC)c1` (stereo not drawn) as the molecule, how does the “% Inhibition” value read?
A: Its value is -6%.

Q: What about the Z score of the same molecule?
A: Its Z score is 1.1.

Q: Which “% Inhibition” value does the source give for `Nc1c(-c2ccccn2)nsc1C(=O)NCc1cc(F)cc(F)c1` here?
A: The value was -10%.

Q: What about the Z score of the same molecule?
A: Its Z score is 1.63.

Q: Which results are given for `O=C(CN1CCC[C@H](O)C1)NCc1ccco1`?
A: % Inhibition: -14%; Z score: 1.39

Q: How did the “% Inhibition” value turn out when `O=C(CCN1CCOCC1)Nc1ccc2c(c1)OCO2` was run?
A: Its value is -13%.

Q: What about the Z score of the same molecule?
A: The Z score was 2.45.

Q: `COc1ccccc1C(=O)N1CCN(c2ccccc2OC)C(=O)[C@@H]1C` was tested. Which “% Inhibition” value did it give?
A: Its value is 1%.

Q: What about the Z score of the same molecule?
A: The Z score was -0.09.

Q: What does the source list for `Cc1nc2c(c(N3CCC(C(=O)NC4CCCC4)CC3)n1)CCOCC2`?
A: % Inhibition: -3%; Z score: 0.27

Q: How did the “% Inhibition” value turn out when `CCCc1cc(C(=O)N[C@@H](C)C(=O)Nc2ccc(C)cc2F)ccn1` was run?
A: The value was -5%.

Q: What about the Z score of the same molecule?
A: Its Z score is 0.93.

Q: Which “% Inhibition” value does the source give for `COc1cccc(S(=O)(=O)N2CC[C@@]3(CCC(=O)N3Cc3ccncc3)C2)c1` here?
A: The value was 4%.

Q: What about the Z score of the same molecule?
A: Its Z score is -0.54.

Q: Which results are given for `Cc1ccc(-c2noc(-c3ccccc3S(=O)(=O)N3CCN(c4ccc(Cl)cc4)CC3)n2)cc1`?
A: % Inhibition: -9%; Z score: 1.06

Q: Which “% Inhibition” value does the source give for `CN1CCN(c2nc(-c3ccccc3)no2)CC1=O` here?
A: Its value is 1%.

Q: And the Z score?
A: The Z score was -0.21.

Q: How did the “% Inhibition” value turn out when `O=S1(=O)C[C@H](NC2CCCCC2)[C@@H](S(=O)(=O)c2ccccc2)C1` was run?
A: The value was 1%.

Q: And the Z score?
A: Its Z score is -0.08.

Q: `Cc1ccc2c(C(=O)NS(=O)(=O)[C@H]3CCOC3)csc2c1` was tested. Which “% Inhibition” value did it give?
A: Its value is -4%.

Q: What about the Z score of the same molecule?
A: The Z score was 0.84.

Q: What does the source list for `C[C@@H]1CN(c2cc(N3CCOCC3)ncn2)CC[C@]1(C)O`?
A: % Inhibition: -7%; Z score: 0.92

Q: With `O=C1N(CC2CCC2)CCC[C@@]12CCN(Cc1cc(C3CC3)on1)C2` as the molecule, how does the “% Inhibition” value read?
A: Its value is -16%.

Q: What about the Z score of the same molecule?
A: Its Z score is 1.7.

Q: Which results are given for `COC[C@](C)(CCO)NC(=O)c1ccccn1`?
A: % Inhibition: -11%; Z score: 1.58

Q: Which results are given for `O=C1NCCN([C@H]2CCCN(Cc3ccccc3)C2)C1=O`?
A: % Inhibition: -12%; Z score: 1.59

Q: Which results are given for `O=C(NC1CCCC1)c1ccc2c(c1)nc1n2CCCC1`?
A: % Inhibition: 0%; Z score: -0.06

Q: Which “% Inhibition” value does the source give for `COc1cccc(-c2cc(C(=O)N3CC[C@H](Oc4ccc5ccccc5n4)C3)n(C)n2)c1` here?
A: Its value is -5%.

Q: And the Z score?
A: Its Z score is 0.87.

Q: What does the source list for `CC(=O)Nc1nc(CC(=O)NC2CCCCCC2)cs1`?
A: % Inhibition: 8%; Z score: -0.9

Q: What does the source list for `COc1ccc(C(=O)N2CCC3(CC2)C[C@@H](Oc2ncccn2)CCO3)cn1`?
A: % Inhibition: -4%; Z score: 0.84

Q: How did the “% Inhibition” value turn out when `COc1ccc(N2CCN(C(=O)c3snc(-c4ccc(C)cc4)c3N)CC2)cc1` was run?
A: The value was -14%.

Q: And the Z score?
A: The Z score was 1.64.

Q: For `Cc1noc(C)c1CCc1nc([C@H]2CCOC2)nn1-c1ccncc1`, which “% Inhibition” value is on record?
A: Its value is -5%.

Q: What about the Z score of the same molecule?
A: Its Z score is 0.51.

Q: Which “% Inhibition” value does the source give for `O=C(c1cc2cc(C3(O)CCNCC3)ccc2o1)N1CCc2ccccc2C1` here?
A: The value was -9%.

Q: What about the Z score of the same molecule?
A: The Z score was 1.74.

Q: How did the “% Inhibition” value turn out when `CC(=O)c1ccc(N2CCN(C(=O)[C@H](C)NC(=O)c3ccco3)CC2)cc1` was run?
A: The value was -2%.

Q: And the Z score?
A: Its Z score is 0.17.

Q: What does the source list for `Cc1cnc(C(=O)N2CCCC[C@H]2C(=O)Nc2cccc(-c3nnc(C)s3)c2)cn1`?
A: % Inhibition: -6%; Z score: 0.71

Q: Which “% Inhibition” value does the source give for `CS(=O)(=O)N(CCCN1CCOCC1)[C@H]1CCN(Cc2cccc(Cl)c2)C1` here?
A: The value was 2%.

Q: And the Z score?
A: Its Z score is -0.41.

Q: With `COCC(=O)NC1CCC(NC(=O)c2csc(COc3cc(C)ccc3C(C)C)n2)CC1` (stereo not drawn) as the molecule, how does the “% Inhibition” value read?
A: The value was 33%.

Q: And the Z score?
A: Its Z score is -0.65.

Q: What does the source list for `Cc1ccc(CNCc2cc3c(cc2OC(F)F)OCO3)nc1`?
A: % Inhibition: 7%; Z score: -0.95

Q: `CC(=O)Nc1nc(CN2CCN3CCOc4cccc2c43)cs1` was tested. Which “% Inhibition” value did it give?
A: The value was -2%.

Q: And the Z score?
A: Its Z score is 0.21.

Q: `CC[C@H](NC(=O)CCc1nncn1C)c1cc(C)ccn1` was tested. Which “% Inhibition” value did it give?
A: Its value is -6%.

Q: And the Z score?
A: The Z score was 0.93.

Q: Which results are given for `CNC(=O)NC(=O)[C@H](C)Nc1cc(C)c(Cl)cc1OC`?
A: % Inhibition: 13%; Z score: -1.79

Q: `CCn1ncnc1CNC(=O)N1CCC[C@](C)(O)C1` was tested. Which “% Inhibition” value did it give?
A: Its value is -2%.

Q: What about the Z score of the same molecule?
A: Its Z score is 0.31.

Q: `O=C(Nc1ccc(Oc2ccccc2)cc1)c1sc2ccccc2c1Cl` was tested. Which “% Inhibition” value did it give?
A: The value was 6%.

Q: What about the Z score of the same molecule?
A: The Z score was -0.7.

Q: How did the “% Inhibition” value turn out when `CCNc1cc(CNC(=O)N2CCC(CO)CC2)ccn1` was run?
A: Its value is 30%.

Q: And the Z score?
A: Its Z score is -3.44.

Q: For `O=C(CCc1ccc(F)c(Cl)c1)N1CC(n2cc(C3CC3)nn2)C1`, which “% Inhibition” value is on record?
A: Its value is -7%.

Q: What about the Z score of the same molecule?
A: The Z score was 0.87.

Q: For `Cc1ccc(N(C)S(=O)(=O)c2ccsc2C(=O)NC2CCC(C)CC2)cc1C` (stereo not drawn), which “% Inhibition” value is on record?
A: The value was -5%.

Q: And the Z score?
A: Its Z score is 0.88.

Q: Which results are given for `CCc1n[nH]c(NC(=O)c2ncncc2Cl)c1Br`?
A: % Inhibition: -37%; Z score: 4.38

Q: For `CC(C)c1nc2ccc(C(=O)NCc3cccc(F)c3)cc2o1`, which “% Inhibition” value is on record?
A: The value was -17%.

Q: What about the Z score of the same molecule?
A: The Z score was 1.55.

Q: With `CCn1cc(-c2nc(-c3ccc(C)c(OC)c3)no2)cn1` as the molecule, how does the “% Inhibition” value read?
A: The value was -8%.

Q: What about the Z score of the same molecule?
A: The Z score was 1.5.

Q: `Cc1cc(=O)n(CC(=O)Nc2cc(F)ccc2C)c(N2CCCCC2)n1` was tested. Which “% Inhibition” value did it give?
A: The value was 0%.

Q: What about the Z score of the same molecule?
A: Its Z score is -0.02.

Q: For `COc1nn(C)cc1NC(=O)NCc1ncc(Br)cn1`, which “% Inhibition” value is on record?
A: Its value is -2%.

Q: What about the Z score of the same molecule?
A: The Z score was 0.24.

Q: With `CCc1nc(N)sc1C(=O)N1CCC[C@H](C(=O)Cc2ccccc2)C1` as the molecule, how does the “% Inhibition” value read?
A: Its value is -6%.

Q: What about the Z score of the same molecule?
A: The Z score was 0.79.

Q: Which “% Inhibition” value does the source give for `Cc1ccc2[nH]nc(CNC(=O)COCC(F)(F)C(F)F)c2c1` here?
A: Its value is -8%.

Q: What about the Z score of the same molecule?
A: Its Z score is 1.6.

Q: What does the source list for `O=C(NCc1ccco1)[C@H]1CCCN(S(=O)(=O)c2c[nH]c(C(=O)N3CCCC3)c2)C1`?
A: % Inhibition: 4%; Z score: -0.72

Q: What does the source list for `O[C@H]1CN(Cc2ccsc2)C[C@@H]1F`?
A: % Inhibition: -15%; Z score: 1.47

Q: With `COCC1CCN(C(=O)C[C@H]2CN(C(C)C)CCO2)CC1` as the molecule, how does the “% Inhibition” value read?
A: Its value is -5%.

Q: And the Z score?
A: Its Z score is 0.67.

Q: Which results are given for `CN(CCc1ccncc1)C[C@@H](O)Cc1ccc2ccccc2c1`?
A: % Inhibition: -5%; Z score: 0.44
